In the supplement of paper PMC8728848:
The list shows a part of the results.

Experiments:
Assay in all cases: glycan array binding signal (z-score within array); higher = stronger binding
Settings in all cases: glycan notation: IUPAC condensed, linker removed
[1] = target: Fuc(a1-2)[Gal(a1-3)]Gal(b1-4)[Fuc(a1-3)]Glc
In short: (§1)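 Glycan array data were curated from 3228 arrays in the Consortium for Functional Glycomics database and kept only where the protein sequence was available. Glycan names were converted to IUPAC-condensed notation, and columns mapping to the same glycan were averaged. The binding signal is a within-array Z-score, averaged across arrays of the same protein sequence at different concentrations or buffers and across linkers. Negative Z-scores can be read as non-binding.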

[2] = target: Fuc(a1-2)[Gal(a1-3)]Gal(b1-4)[Fuc(a1-3)]GlcNAc
In short: as §1

[3] = target: Fuc(a1-2)[Gal(a1-3)]Gal(b1-4)[Fuc(a1-3)]GlcNAc(b1-3)GalNAc
In short: as §1

[4] = target: Fuc(a1-2)[Gal(a1-4)]Gal(b1-4)GlcNAc
In short: as §1

[5] = target: Fuc(a1-2)[GalNAc(a1-3)]Gal
In short: as §1

[6] = target: Fuc(a1-2)[GalNAc(a1-3)]Gal(b1-3)GalNAc(a1-3)[Fuc(a1-2)]Gal(b1-4)GlcNAc
In short: as §1

[7] = target: Fuc(a1-2)[GalNAc(a1-3)]Gal(b1-3)GlcNAc
In short: as §1

[8] = target: Fuc(a1-2)[GalNAc(a1-3)]Gal(b1-3)GlcNAc(b1-2)Man(a1-3)[Fuc(a1-2)[GalNAc(a1-3)]Gal(b1-3)GlcNAc(b1-2)Man(a1-6)]Man(b1-4)GlcNAc(b1-4)GlcNAc
In short: as §1

[9] = target: Fuc(a1-2)[GalNAc(a1-3)]Gal(b1-3)GlcNAc(b1-2)Man(a1-3)[Fuc(a1-2)[GalNAc(a1-3)]Gal(b1-3)GlcNAc(b1-2)Man(a1-6)]Man(b1-4)GlcNAc(b1-4)[Fuc(a1-6)]GlcNAc
In short: as §1

[10] = target: Fuc(a1-2)[GalNAc(a1-3)]Gal(b1-3)GlcNAc(b1-3)GalNAc
In short: as §1

[11] = target: Fuc(a1-2)[GalNAc(a1-3)]Gal(b1-3)GlcNAc(b1-6)GalNAc
In short: as §1

[12] = target: Fuc(a1-2)[GalNAc(a1-3)]Gal(b1-4)Glc
In short: as §1

[13] = target: Fuc(a1-2)[GalNAc(a1-3)]Gal(b1-4)GlcNAc
In short: as §1

[14] = target: Fuc(a1-2)[GalNAc(a1-3)]Gal(b1-4)GlcNAc(b1-2)Man(a1-3)[Fuc(a1-2)[GalNAc(a1-3)]Gal(b1-4)GlcNAc(b1-2)Man(a1-6)]Man(b1-4)GlcNAc(b1-4)GlcNAc
In short: as §1

[15] = target: Fuc(a1-2)[GalNAc(a1-3)]Gal(b1-4)GlcNAc(b1-2)Man(a1-3)[Fuc(a1-2)[GalNAc(a1-3)]Gal(b1-4)GlcNAc(b1-2)Man(a1-6)]Man(b1-4)GlcNAc(b1-4)[Fuc(a1-6)]GlcNAc
In short: as §1

[16] = target: Fuc(a1-2)[GalNAc(a1-3)]Gal(b1-4)GlcNAc(b1-3)Gal(b1-4)GlcNAc
In short: as §1

[17] = target: Fuc(a1-2)[GalNAc(a1-3)]Gal(b1-4)GlcNAc(b1-3)Gal(b1-4)GlcNAc(b1-3)Gal(b1-4)GlcNAc
In short: as §1

[18] = target: Fuc(a1-2)[GalNAc(a1-3)]Gal(b1-4)GlcNAc(b1-3)GalNAc
In short: as §1

[19] = target: Fuc(a1-2)[GalNAc(a1-3)]Gal(b1-4)[Fuc(a1-3)]GlcNAc
In short: as §1

[20] = target: Fuc(a1-2)[GalNAc(a1-3)]Gal(b1-4)[Fuc(a1-3)]GlcNAc(b1-3)GalNAc
In short: as §1

[21] = target: Fuc(a1-2)[GalNAc(a1-4)]Gal(b1-4)GlcNAc
In short: as §1

[22] = target: Fuc(a1-2)[GalNAc(b1-3)]Gal
In short: as §1

Fuc(a1-3)GlcNAc = target: Fuc(a1-3)GlcNAc
In short: as §1

[23] = target: Fuc(a1-3)[Gal(b1-4)]Glc6S
In short: as §1

[24] = target: Fuc(a1-3)[Gal(b1-4)]GlcNAc
In short: as §1

[25] = target: Fuc(a1-3)[Gal(b1-4)]GlcNAc(b1-2)Man
In short: as §1

[26] = target: Fuc(a1-3)[Gal(b1-4)]GlcNAc(b1-2)Man(a1-3)[Fuc(a1-3)[Gal(b1-4)]GlcNAc(b1-2)Man(a1-6)]Man(b1-4)GlcNAc(b1-4)GlcNAc
In short: as §1

[27] = target: Fuc(a1-3)[Gal(b1-4)]GlcNAc(b1-2)Man(a1-3)[Fuc(a1-3)[Gal(b1-4)]GlcNAc(b1-2)Man(a1-6)]Man(b1-4)GlcNAc(b1-4)[Fuc(a1-6)]GlcNAc
In short: as §1

[28] = target: Fuc(a1-3)[Gal(b1-4)]GlcNAc(b1-3)Gal(b1-3)[Fuc(a1-4)]GlcNAc
In short: as §1

[29] = target: Fuc(a1-3)[Gal(b1-4)]GlcNAc(b1-3)GalNAc
In short: as §1

B1: PitA (Streptococcus oralis), G3F8D8 (protein)
chain: MNIRFDFKKVQIIARRLVTLLAILFLCAPISLLNADSTTEPQTTLHKTITPISGQDDKYELSLDITSKLGTETQTDPLDVVLVADLSGSMQNQDVQSFDGRTISRIDALKNTLRGTNGRKGLIDTILSNSNNRLSMVGFGGKIDNKKVDQYWDGNKWRLFRPYWPYERMTKYYDGVSPWDDANTILGWSNNARAAKTAVYNMSIAGGNSIGTESGIGTGTNIGAGLTLANQLMGSARSNAKKVVILLSDGFANMVYDANGYTIYNYNNEDPNIETAPQWFWDRLNNNLNSLSYSLAPTLDGFYSIKFRYSNNVDSITSLQYYMRQHNASIPNEIFSANDEDQLRDSFKDITDKILPLGIHHVSIKDVLSKYVQLLPNGSSEFRVVKEKDGSSEILIENQVTFDTKTTSEGLVEVTAKFSPNYSLEDGARYVLKFTVTSSQEALDAIAGDKKLEAGDAEGSDVNKLYSNKGASVTYSYGIGNSQTKTKEYSDNPTFKPSDPLTVPVEVEWQGVTGARTVITADQPSNVELKLVQKNKNGGSDNQDYRKTNVNVSKNVSNETRNFEKVAKGYQYDLIAPDVPAFTKEIKNVGTESKPSFKVIYKQLPSLTIKKVLEAENNLNKEFRIKVKLTSPDSKPLNGTFGEITVVNGEAEIRVEKRKRWEGILSYLPRGTHYKVEEEAASTNGYHVTYENQEGDLNKDETSIVTNHKLPSLSVTKKVTGVFANLLKSFKITINIRDAQNSPLNGTYTATVNNKRTPLQFTNGRASIDLNKDQTIKIYGLPLDSHYTVEEESNSSRGYQVSYENQEGKLDGDKSATVTNNKNSVPETGVDFLSSTLMLGIILPLGGIFFTILLGYLVVHRRK
glycan array binding signal (z-score) [1]: -0.569 | glycan array binding signal (z-score) [2]: 0.176 | glycan array binding signal (z-score) [3]: 0.976 | glycan array binding signal (z-score) [4]: -0.469 | glycan array binding signal (z-score) [5]: -0.392 | glycan array binding signal (z-score) [6]: -0.095 | glycan array binding signal (z-score) [7]: -0.017 | glycan array binding signal (z-score) [8]: -0.473 | glycan array binding signal (z-score) [9]: 0.068 | glycan array binding signal (z-score) [10]: 4.75 | glycan array binding signal (z-score) [11]: -0.334 | glycan array binding signal (z-score) [12]: -0.125 | glycan array binding signal (z-score) [13]: -0.444 | glycan array binding signal (z-score) [14]: 0.106 | glycan array binding signal (z-score) [15]: -0.085 | glycan array binding signal (z-score) [16]: -0.715 | glycan array binding signal (z-score) [17]: 0.475 | glycan array binding signal (z-score) [18]: 0.248 | glycan array binding signal (z-score) [19]: 1.54 | glycan array binding signal (z-score) [20]: 5.3 | glycan array binding signal (z-score) [21]: -0.66 | glycan array binding signal (z-score) [22]: -0.246 | glycan array binding signal (z-score) (Fuc(a1-3)GlcNAc): -0.562 | glycan array binding signal (z-score) [23]: 0.703 | glycan array binding signal (z-score) [24]: -0.293 | glycan array binding signal (z-score) [25]: -0.061 | glycan array binding signal (z-score) [26]: -0.712 | glycan array binding signal (z-score) [27]: 3.17 | glycan array binding signal (z-score) [28]: -0.287 | glycan array binding signal (z-score) [29]: 2.79
